# Measurements: the supplement of paper PMC8728848
# The other results are listed elsewhere or left out.
# B1: PX15618B-bfa-464-25-464 (Bacteroides fragilis) (protein)
# chain: DQEPPLYVNENDIFTSPTRIEATLNGLYAAIKNTGTKSLMGGKSYLVFDNRGDDVINISNNLVTLFNTYNMNVGITDAENADTWTYAYLAINKVNTFLQSLEGAREVAGENYDRYVQEAKFVRALAYYYLNNLYPTPYSVNPDAKSVPLRLTAEAGTENNNMPRSTVKQIYEHILSDLENISALDTEVNTYTGVTHATQAAANMLKMRVYMAMNEWDKAITAGELVTGYSLPEDVTLIYKAPYFSQESIFSLPMADTNIPNTQQSLAEYYYDGKIMLIDTKSGIMSKPDYSLATDKRIIAFKGEKDLLMKFTDAKTKLQWVPIFRYAETLLDLAECYANKAGGEATAKSLLKQVRGRSVDAATDPLNIDNLSGDALKEAIYNEKRLEFIGEGIRGIDIMRRGEHFIKVGENETINVGPSDEKYTWPIPQVELLLNKDINK
# Legend:
# Assay in all cases: glycan array binding signal (z-score within array); higher = stronger binding
# Settings in all cases: glycan notation: IUPAC condensed, linker removed
# [1] = molecular target: Gal(b1-4)GlcNAc(b1-2)Man(a1-3)[Gal(b1-4)GlcNAc(b1-2)Man(a1-6)]Man(b1-4)GlcNAc(b1-4)[Fuc(a1-6)]GlcNAc
# Procedure, shortened: (§1)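 From the Consortium for Functional Glycomics database, 3228 arrays were curated, keeping only those whose protein sequence was available. Binding is given as a within-array Z-score averaged across arrays sharing a protein sequence and across linkers. Negative Z-scores can be read as non-binding.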
# [2] = molecular target: Gal(b1-4)GlcNAc(b1-2)Man(a1-3)[Gal(b1-4)GlcNAc(b1-2)Man(a1-6)][Gal(b1-4)GlcNAc(b1-4)]Man(b1-4)GlcNAc(b1-4)[Fuc(a1-6)]GlcNAc
# Procedure, shortened: as §1
# [3] = molecular target: Gal(b1-4)GlcNAc(b1-2)Man(a1-3)[Gal(b1-4)GlcNAc(b1-2)Man(a1-6)][GlcNAc(b1-4)]Man(b1-4)GlcNAc(b1-4)[Fuc(a1-6)]GlcNAc
# Procedure, shortened: as §1
# [4] = molecular target: Gal(b1-4)GlcNAc(b1-2)Man(a1-3)[GlcNAc(b1-2)Man(a1-6)]Man(b1-4)GlcNAc(b1-4)GlcNAc
# Procedure, shortened: as §1
# [5] = molecular target: Gal(b1-4)GlcNAc(b1-2)Man(a1-3)[GlcNAc(b1-4)][Gal(b1-4)GlcNAc(b1-2)Man(a1-6)]Man(b1-4)GlcNAc(b1-4)GlcNAc
# Procedure, shortened: as §1
# [6] = molecular target: Gal(b1-4)GlcNAc(b1-2)Man(a1-3)[Man(a1-6)]Man(b1-4)GlcNAc(b1-4)GlcNAc
# Procedure, shortened: as §1
# [7] = molecular target: Gal(b1-4)GlcNAc(b1-2)Man(a1-6)Man(b1-4)GlcNAc(b1-4)GlcNAc
# Procedure, shortened: as §1
# [8] = molecular target: Gal(b1-4)GlcNAc(b1-2)Man(a1-6)[GlcNAc(b1-2)Man(a1-3)]Man(b1-4)GlcNAc(b1-4)GlcNAc
# Procedure, shortened: as §1
# [9] = molecular target: Gal(b1-4)GlcNAc(b1-2)Man(a1-6)[Man(a1-3)]Man(b1-4)GlcNAc(b1-4)GlcNAc
# Procedure, shortened: as §1
# [10] = molecular target: Gal(b1-4)GlcNAc(b1-2)[Gal(b1-4)GlcNAc(b1-4)]Man(a1-3)[Gal(b1-4)GlcNAc(b1-2)Man(a1-6)]Man(b1-4)GlcNAc(b1-4)GlcNAc
# Procedure, shortened: as §1
# [11] = molecular target: Gal(b1-4)GlcNAc(b1-2)[Gal(b1-4)GlcNAc(b1-4)]Man(a1-3)[Gal(b1-4)GlcNAc(b1-2)[Gal(b1-4)GlcNAc(b1-6)]Man(a1-6)]Man(b1-4)GlcNAc(b1-4)GlcNAc
# Procedure, shortened: as §1
# [12] = molecular target: Gal(b1-4)GlcNAc(b1-2)[Gal(b1-4)GlcNAc(b1-4)]Man(a1-3)[GlcNAc(b1-4)][Gal(b1-4)GlcNAc(b1-2)Man(a1-6)]Man(b1-4)GlcNAc(b1-4)GlcNAc
# Procedure, shortened: as §1
# [13] = molecular target: Gal(b1-4)GlcNAc(b1-2)[Gal(b1-4)GlcNAc(b1-4)]Man(a1-3)[GlcNAc(b1-4)][Gal(b1-4)GlcNAc(b1-2)[Gal(b1-4)GlcNAc(b1-6)]Man(a1-6)]Man(b1-4)GlcNAc(b1-4)GlcNAc
# Procedure, shortened: as §1
# [14] = molecular target: Gal(b1-4)GlcNAc(b1-2)[Gal(b1-4)GlcNAc(b1-6)]Man(a1-6)[Gal(b1-4)GlcNAc(b1-2)Man(a1-3)]Man(b1-4)GlcNAc(b1-4)GlcNAc
# Procedure, shortened: as §1
# [15] = molecular target: Gal(b1-4)GlcNAc(b1-2)[Gal(b1-4)GlcNAc(b1-6)]Man(a1-6)[Gal(b1-4)GlcNAc(b1-2)Man(a1-3)]Man(b1-4)GlcNAc(b1-4)[Fuc(a1-6)]GlcNAc
# Procedure, shortened: as §1
# [16] = molecular target: Gal(b1-4)GlcNAc(b1-2)[Gal(b1-4)GlcNAc(b1-6)]Man(a1-6)[GlcNAc(b1-4)][Gal(b1-4)GlcNAc(b1-2)Man(a1-3)]Man(b1-4)GlcNAc(b1-4)GlcNAc
# Procedure, shortened: as §1
# [17] = molecular target: Gal(b1-4)GlcNAc(b1-2)[Gal(b1-4)GlcNAc(b1-6)]Man(a1-6)[GlcNAc(b1-4)][Gal(b1-4)GlcNAc(b1-2)[Gal(b1-4)GlcNAc(b1-4)]Man(a1-3)]Man(b1-4)GlcNAc(b1-4)[Fuc(a1-6)]GlcNAc
# Procedure, shortened: as §1
# [18] = molecular target: Gal(b1-4)GlcNAc(b1-3)Gal(b1-3)GalNAc
# Procedure, shortened: as §1
# [19] = molecular target: Gal(b1-4)GlcNAc(b1-3)Gal(b1-3)GlcNAc
# Procedure, shortened: as §1
binder,measurement,setting,value
B1,glycan array binding signal (z-score),[1],1.02
same,glycan array binding signal (z-score),[2],0.184
same,glycan array binding signal (z-score),[3],0.173
same,glycan array binding signal (z-score),[4],-0.294
same,glycan array binding signal (z-score),[5],-0.115
same,glycan array binding signal (z-score),[6],-0.774
same,glycan array binding signal (z-score),[7],-0.444
same,glycan array binding signal (z-score),[8],-0.423
same,glycan array binding signal (z-score),[9],0.248
same,glycan array binding signal (z-score),[10],0.511
same,glycan array binding signal (z-score),[11],-0.527
same,glycan array binding signal (z-score),[12],0.441
same,glycan array binding signal (z-score),[13],-0.722
same,glycan array binding signal (z-score),[14],2.66
same,glycan array binding signal (z-score),[15],1.01
same,glycan array binding signal (z-score),[16],-0.159
same,glycan array binding signal (z-score),[17],-0.06
same,glycan array binding signal (z-score),[18],-0.13
same,glycan array binding signal (z-score),[19],-0.62
